# Over roughly 33,000 sequences, “E-score (-0.5 to 0.5)” has its median near -0.054; the highest 2% begin near 0.35. This is one part of the list.
# Target: T1, Stb5 (UniProt P38699)
# T1 sequence: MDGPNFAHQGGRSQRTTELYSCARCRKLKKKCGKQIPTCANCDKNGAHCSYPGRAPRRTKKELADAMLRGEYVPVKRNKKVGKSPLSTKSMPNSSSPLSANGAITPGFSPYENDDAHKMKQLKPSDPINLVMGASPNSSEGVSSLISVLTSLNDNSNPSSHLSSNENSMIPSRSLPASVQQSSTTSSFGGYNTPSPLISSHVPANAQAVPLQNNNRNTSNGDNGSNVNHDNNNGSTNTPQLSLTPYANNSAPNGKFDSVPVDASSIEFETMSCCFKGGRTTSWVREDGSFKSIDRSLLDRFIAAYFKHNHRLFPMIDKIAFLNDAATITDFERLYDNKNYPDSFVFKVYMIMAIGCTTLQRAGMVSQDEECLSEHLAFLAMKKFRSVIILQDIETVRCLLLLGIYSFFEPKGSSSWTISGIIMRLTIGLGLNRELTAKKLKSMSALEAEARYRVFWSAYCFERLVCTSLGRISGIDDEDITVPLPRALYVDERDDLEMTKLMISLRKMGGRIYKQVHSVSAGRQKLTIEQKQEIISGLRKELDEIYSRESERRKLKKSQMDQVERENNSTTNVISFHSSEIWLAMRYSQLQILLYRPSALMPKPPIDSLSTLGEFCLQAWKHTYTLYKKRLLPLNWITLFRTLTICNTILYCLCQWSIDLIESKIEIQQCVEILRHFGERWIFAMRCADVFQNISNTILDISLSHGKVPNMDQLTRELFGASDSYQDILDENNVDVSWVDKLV
# Test: PBM E-score (8-mer binding enrichment) (E-score (-0.5 to 0.5)); higher = stronger / more preferred TF binding; most listed sequences are background and not binding sites
# Conditions: protein concentration: 200 nM; construct: GST-full length
# Procedure, shortened: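 For each ungapped eight-base word taken together with its reverse complement, the Universal PBM Analysis Suite assigned an E-score. Binding data came from GST-tagged yeast transcription factors, applied at about 100-200 nM, on universal all-10-mer Agilent arrays made double-stranded by primer extension. Fluorescent anti-GST marked bound protein, and scans were normalised with masliner.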
row,Sequence,PBM E-score
1,AGGCTTAA,-0.106
2,AAATGAAA,0.189
3,CGTCGGAA,0.24
4,CGACTCGA,-0.109
5,GCTTGCCA,-0.201
6,AGCGCGCT,0.0759
7,TCGGCGAA,0.181
8,ACTACTAG,-0.0862
9,AGGTATTA,0.212
10,ATTAAGTC,-0.094
11,CATAATCG,0.0763
12,CTACCGCA,0.164
13,AAGAGGTG,-0.0385
14,ACTCTAAA,0.01
15,CTGAAGTC,-0.0164
16,GCATCACC,0.125
17,TTCCTAAA,-0.118
18,GGTGACAA,0.273
19,AGAAGTCC,0.0982
20,CCGGCCGG,0.337
21,CAATACGC,-0.0778
22,CTGAACGC,-0.142
23,AGGTGAGG,-0.288
24,GCCCTGCC,-0.0572
25,CCCGGCAA,0.338

row,Sequence,PBM E-score
1,AAGTGCAA,-0.0923
2,TGTGATAA,-0.171
3,CACATGGA,-0.246
4,TGATTCAA,-0.0846
5,CAACCGGG,0.213
6,ATGAATAC,0.0275
7,TCGCCCAA,-0.239
8,ACGCGCGG,0.301
9,ACAATCGA,-0.161
10,TATACTGA,-0.168
11,ACAAAGTG,-0.151
12,CTCATAGA,-0.131
13,CGTTTGCC,0.00995
14,AGATAATG,0.0139
15,ATGAGGAC,-0.167
16,GCCATCGC,0.00556
17,ATTATTAA,0.138
18,TGAAAAAA,-0.0305
19,CACGCCGG,0.268
20,ACCACGTG,-0.0878
21,ACGTGTAG,-0.179
22,GCATCCCC,0.111
23,GCATACAA,-0.11
24,AACGGGAA,0.309
25,ACGGCGAG,0.043

row,Sequence,PBM E-score
1,GGACTCTA,0.0497
2,ATATCGGG,0.225
3,AATGAAGT,-0.153
4,TCAAATGA,0.0129
5,GAATAAAA,0.144
6,AGTCACCC,-0.101
7,CGTCGGTA,0.357
8,ATGCACAA,-0.216
9,AAACATGG,-0.105
10,AGGGCAGC,-0.329
11,ATATGATG,-0.132
12,GTTGTAAA,-0.118
13,TCCTAAGA,-0.0807
14,GCTTGATA,-0.0825
15,ACCAGCGC,-0.046
16,TTGCACAA,-0.0693
17,CGATCATC,0.136
18,AAGGCGGT,0.23
19,AGGCTAGG,-0.186
20,AGCATGTG,-0.158
21,TACGCGAA,0.0101
22,CATGATGA,-0.193
23,AAGTATCG,-0.0376
24,CCCAGCCC,-0.119
25,CCGCTAAA,0.301

row,Sequence,PBM E-score
1,GGATCCAA,0.0401
2,CGCGGAAG,0.0363
3,GCATTGCC,0.0425
4,GGAACGTA,-0.0894
5,AATAACTC,0.142
6,AATAGTTC,-0.0119
7,ACCGGTGC,0.377
8,ACCGTTTG,0.31
9,AGGGGTCC,-0.107
10,AGGGCCCC,-0.051
11,CGCCCAGA,-0.213
12,TGAGCGCA,-0.179
13,CCTGGCGA,-0.0125
14,TACCGTCA,0.305
15,AAAGTTGC,-0.0202
16,TAGCTCAA,-0.15
17,AAGGGGGA,-0.0674
18,AGGTCTTG,-0.0752
19,CGGAGGAA,0.251
20,TGGCAACA,-0.226
21,ATTGTATA,0.0899
22,CAACAGGC,-0.043
23,AATCCAGT,-0.142
24,TATTTCAA,-0.103
25,CCTTAGGA,-0.0624

row,Sequence,PBM E-score
1,ACGCCATG,-0.293
2,AAGCTTGG,-0.193
3,AACCACCT,0.0318
4,CGCTGGTA,0.261
5,AGGAGGAA,-0.127
6,AACTAGTC,-0.0284
7,ATACTGGG,-0.11
8,AACGATCG,-0.0892
9,ACCCAAGT,-0.211
10,AGCGTGAC,-0.0764
11,CTCTTCCC,-0.103
12,CAGGAACC,-0.143
13,CACGTCAA,-0.11
14,ATATCCAT,-0.0548
15,AGATCTAT,0.0233
16,AATTGGTC,0.0484
17,CGGGTACC,0.0398
18,ATCCGTCC,0.13
19,GAAACTTC,-0.0413
20,ATTTCCAC,0.0627
21,ATTAAAGG,0.0961
22,AGCTCTTG,-0.388
23,CCCTTACC,-0.125
24,ACGAACCG,-0.0115
25,AGTGCTGA,-0.186

row,Sequence,PBM E-score
1,ACGGCGGC,0.288
2,CGGTCCAG,0.00878
3,AACAACGC,0.021
4,ATATATGA,-0.153
5,AGCCTAAT,-0.324
6,AATATTAA,0.0579
7,GACGTACC,-0.0651
8,ACGCTAGG,-0.168
9,CTTTCGTA,-0.115
10,GCCAGGCA,-0.0827
11,ACGTCAAA,-0.248
12,CACCCTTA,-0.0843
13,GTATGATA,-0.0305
14,AGGGTCCC,-0.238
15,ATCCCTGA,-0.21
16,GCGAAGCC,-0.104
17,CCGAAAAG,0.0876
18,CTGTCTCA,-0.11
19,CAATATCC,0.176
20,AGTGCGGA,0.198
21,AGGGCCAC,-0.303
22,CCGGCTCC,0.162
23,GTTCGACA,0.0077
24,ACGTAATG,0.0151
25,AAACAGAT,-0.222

row,Sequence,PBM E-score
1,AGCTTTGG,-0.165
2,AAAATCGT,-0.0471
3,CAGAGCGC,-0.0425
4,AGATCCAT,0.0463
5,GTGCCAAC,0.112
6,TAAACTTA,-0.172
7,CTGTTTCA,-0.0942
8,ATGGGAGA,-0.331
9,GGAGAACC,0.0343
10,AGGCGCGG,0.244
11,TGAAGCCA,-0.164
12,AAGCTGGT,-0.381
13,CCACGTTC,-0.0756
14,ATAACAGC,0.329
15,CTCTCAAA,-0.154
16,GGTAAGGA,-0.148
17,ATTGCTTG,-0.28
18,CGTCCACC,-0.124
19,AAAACAAT,-0.191
20,CATTGGGC,-0.0666
21,GACTTCAC,-0.0283
22,ATCCTTCA,-0.0629

# Reference: the supplement of paper PMC3334620
